# Measurements: article PMC4336329 (PLoS ONE, 2015)
# About 2,200 (0.71%) of roughly 310,000 compounds showed an effect of 50% or more. Effects have a minus sign here. Some of the results follow.
# Biological target: human ether-à-go-go-related gene (hERG) potassium channel (human, UniProt Q12809)
# Assay: primary screen, population patch clamp on CHO cells stably expressing hERG
# Chain of human ether-à-go-go-related gene (hERG) potassium channel (Q12809 whole entry, looked up): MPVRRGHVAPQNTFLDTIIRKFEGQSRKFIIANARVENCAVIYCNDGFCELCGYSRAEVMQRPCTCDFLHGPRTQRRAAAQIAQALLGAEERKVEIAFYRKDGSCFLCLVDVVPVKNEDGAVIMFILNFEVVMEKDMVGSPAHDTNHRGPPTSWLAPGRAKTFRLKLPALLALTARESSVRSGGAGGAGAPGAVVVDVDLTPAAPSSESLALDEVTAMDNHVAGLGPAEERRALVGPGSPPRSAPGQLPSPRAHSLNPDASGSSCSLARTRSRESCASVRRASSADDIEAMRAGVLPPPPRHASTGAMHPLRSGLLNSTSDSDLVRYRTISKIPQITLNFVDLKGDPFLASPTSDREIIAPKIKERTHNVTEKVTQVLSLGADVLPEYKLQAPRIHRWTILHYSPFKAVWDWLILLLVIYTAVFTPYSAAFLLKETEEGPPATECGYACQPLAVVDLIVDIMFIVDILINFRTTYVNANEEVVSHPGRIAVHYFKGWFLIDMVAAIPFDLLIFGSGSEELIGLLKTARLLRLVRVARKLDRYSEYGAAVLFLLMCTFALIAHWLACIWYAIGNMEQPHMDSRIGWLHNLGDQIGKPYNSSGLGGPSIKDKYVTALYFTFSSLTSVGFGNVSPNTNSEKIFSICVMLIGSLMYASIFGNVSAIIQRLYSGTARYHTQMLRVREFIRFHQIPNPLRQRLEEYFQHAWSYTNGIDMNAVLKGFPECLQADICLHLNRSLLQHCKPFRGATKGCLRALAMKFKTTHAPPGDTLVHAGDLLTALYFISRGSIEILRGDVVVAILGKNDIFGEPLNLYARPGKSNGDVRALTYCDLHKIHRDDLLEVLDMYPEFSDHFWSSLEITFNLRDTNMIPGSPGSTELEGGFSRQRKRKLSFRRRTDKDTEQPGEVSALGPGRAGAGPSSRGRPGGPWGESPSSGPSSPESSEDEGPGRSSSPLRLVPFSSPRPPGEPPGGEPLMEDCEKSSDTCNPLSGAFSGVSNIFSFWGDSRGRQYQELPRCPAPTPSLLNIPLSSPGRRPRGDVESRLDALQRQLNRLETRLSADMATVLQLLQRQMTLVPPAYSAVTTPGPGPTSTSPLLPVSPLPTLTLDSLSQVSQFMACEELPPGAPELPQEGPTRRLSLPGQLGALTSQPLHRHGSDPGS
row,SMILES,"hERG current change (%, negative = inhibition) at 1uM [%]"
1,Cc1ccc(S(=O)(=O)N=Nc2c(O)[nH]c3ccccc23)cc1C,9.86
2,Nc1nc(-c2ccccc2)[nH]c(=O)c1N,6.76
3,COc1cccc(-c2nnc3sc(C4CCCCC4)nn23)c1,1.93
4,COc1ccc(NC(=O)CSc2nnc(Cc3ccc(C)cc3)c(=O)n2N)cc1OC,4
5,CCOC(=O)CSc1nnc(CNC(=O)c2cccs2)n1-c1cc(C)ccc1C,1.73
6,CSc1ccccc1NC(=O)Nc1cccc(Cl)c1,0.949
7,CCN(CC(=O)NC(=O)NCc1ccco1)Cc1ccccc1,3.34
8,CNC(=O)[C@@H]1C[C@H]1[C@@H](NC(=O)OCc1ccccc1)c1ccccc1,-25.8
9,COc1ccc(NC(=O)CN(C)S(=O)(=O)c2ccc(Cl)cc2)cn1,12.9
10,CC(=O)NC(CC(=O)N(Cc1ccccc1)c1ccc(C)cc1)c1ccccc1 (centres unmarked),9.42
11,Oc1cc(OCc2ccccc2)ccc1-c1[nH]ncc1-c1ccccc1,6.25
12,O=C(c1c[nH]c2ccc(S(=O)(=O)N3CCOCC3)cc2c1=O)N1CCCC1,-2.34
13,O=C(NCc1ccco1)C(=O)NCC1OCCN1S(=O)(=O)c1cc(F)ccc1F (centres unmarked),13.3
14,O=C(Oc1ccc(N2C(=O)CCC2=O)cc1)c1ccccc1,15
15,CC1(C)CC(=O)C(C#N)=C(NCCCO)C1,14.6
16,COc1ccc(C(=O)C2CCCN(Cc3cccn3-c3cccnc3)C2)cc1OC (centres unmarked),-34.9
17,Cc1cc(C)n(CCN(C)C(=O)C2CCC(=O)N(CCc3cccc(F)c3)C2)n1 (centres unmarked),7.21
18,Cc1csc(NC(=O)C(F)(F)F)n1,10.5
19,CCOCC(=O)Nc1cc(Cl)ccc1C,19
20,OCCN(CCO)c1ccc2ccccc2c1,10.5
21,O=[N+]([O-])c1ccccc1/C=N/N1CCN(c2ccccn2)CC1,6.62
22,O=C(c1ccc(-c2cccc(C(F)(F)F)c2)o1)N1CCCC(C(F)(F)F)C1 (centres unmarked),-0.174
23,COc1ccc(C(=O)OCC(=O)NCC2CCCO2)c(F)c1 (centres unmarked),14.6

row,SMILES,"hERG current change (%, negative = inhibition) at 1uM [%]"
1,CN(C)c1ccc(NC(=O)CCn2c(=S)oc3ccccc32)cc1,17.2
2,CCc1ccc(C(=O)NNc2ccc(Cl)cc2)cc1,8.45
3,CN(Cc1ccccc1)Cc1nc2scc(-c3ccccc3)c2c(=O)[nH]1,18.7
4,COc1cc([N+](=O)[O-])ccc1NC(=O)CCCOc1cc(C)ccc1C,-2.49
5,O=C(NCC(O)c1ccccc1)c1cccc(S(=O)(=O)N2CCOCC2)c1 (centres unmarked),-1.89
6,Cc1nn(-c2nc3ccccc3[nH]2)c(=O)c2ccccc12,5.64
7,CC1CCC2(CC1)NC(=O)N(CC(=O)N1CCN(C(=O)c3cccs3)CC1)C2=O (centres unmarked),0.283
8,Cn1c(=O)n(C)c2cc(NS(=O)(=O)c3ccc(F)cc3)ccc21,5.9
9,CC1CN(/C(=N\S(=O)(=O)c2ccccc2)c2ccccc2)CC(C)O1 (centres unmarked),-5.56
10,CCn1c(SCC(=O)c2ccc(C)cc2)nnc1-c1ccoc1C,1.74
11,CNC(=O)OCc1n(C)cc[n+]1C.[I-],7.16
12,Cc1nn(-c2ccccc2)c2c1c(C)c(CCC(=O)NCC1CCCO1)c(=O)n2C (centres unmarked),16.6
13,COc1cc(C(=O)NCCCNc2nc3cc(C)c(C)cc3cc2C#N)cc(OC)c1OC,23.9
14,CC(NC(=O)c1ccccc1)c1nnc(SCC(=O)NC2=NCCS2)n1C (centres unmarked),14.1
15,Cc1cccc(C(=O)NC2CCN(S(=O)(=O)c3ccc(F)cc3)CC2)c1,16.2
16,CN(C)S(=O)(=O)N(CCN1CCOCC1)Cc1ccccc1F,10.7
17,COc1ccc(N2CCN(Cc3nc4ccsc4c(=O)[nH]3)CC2)cc1,12.8
18,COc1cccc(C(c2c(NC(=O)c3ccco3)sc(C)c2C)N2CCOCC2)c1 (centres unmarked),5.05
19,COc1ccc(NC(=O)CC2C(=O)N(c3ccc(OC)cc3)C(=O)N2C(C)C)cc1 (centres unmarked),-6.1
20,O=C(Nc1ccccc1Cl)c1cc[n+]([O-])cc1,16.3
21,COC(CNC(=O)c1ccc2c(c1)ncn2-c1ccc(F)cc1F)OC,18.8
22,COc1cccc(OC)c1C(=O)Nc1ccc2c(c1)Cc1ccccc1-2,14.6
23,CC(C)On1c(SC(C)C)nc2ccccc2c1=O,6.43

row,SMILES,"hERG current change (%, negative = inhibition) at 1uM [%]"
1,CNC(=O)c1c(NC(=O)c2ccc(S(=O)(=O)N3CCCC3)cc2)sc2c1CCN(C(C)C)C2,11.9
2,CC(OC(=O)c1cccs1)C(=O)NCc1cccs1 (centres unmarked),3.43
3,C=CCNCCCCOc1cccc(Br)c1.O=C(O)C(=O)O,19
4,CCOC(=O)c1c(C2CC2)csc1NC(C)=O,-12.7
5,Cc1cc(C)c(OCC(=O)N(Cc2ccccc2)C2CCS(=O)(=O)C2)c(C)c1 (centres unmarked),2.23
6,CCN(C(=O)COC(=O)c1cc2c(s1)CCCCC2)C1CCS(=O)(=O)C1 (centres unmarked),4.31
7,CC(C)c1cc(CN2CCOCC2)cc(C(C)C)c1O,10.3
8,O=C(c1ccc(CS(=O)(=O)c2ccccc2)o1)N1CCOCC1,15.8
9,CC(=O)NC(CC(=O)Nc1nc(-c2ccccc2)c(C(C)=O)s1)c1ccccc1 (centres unmarked),6.94
10,Cl.c1ccc2c(c1)OCC(C1=NCCN1)O2 (centres unmarked),9.14
11,CCC(C)N1CCN(C(=O)c2cc(OC)cc(OC)c2)CC1.O=C(O)C(=O)O (centres unmarked),16.2
12,C=CCn1c(SCC(=O)NCc2ccc3c(c2)OCO3)nnc1C1CCCCC1,-8.39
13,COc1ccc(S(=O)(=O)N2CCN(C(=O)C3CCC3)CC2)cc1,6.11
14,Cc1cc(NC(=O)COC(=O)CSc2nc3cc(Cl)ccc3n2Cc2ccccc2)no1,-1.77
15,N=C1/C(=C\c2ccc(OC(=O)c3ccccc3)cc2)C(=O)N=C2SC(N3CCOCC3)=NN12,8.75
16,CCOc1ccc(/C=C2\SC(=S)N(CCC(=O)Nc3ccc(C(=O)O)cc3)C2=O)cc1,22.1
17,O=C(CCS(=O)(=O)c1cccc2nsnc12)NC1CCCCC1,12.4
18,CCOC(=O)C(O)(c1ccc(NC(=S)NC(=O)c2ccc(Cl)cc2Cl)cc1)C(F)(F)F (centres unmarked),22.8
19,CCOC(=O)C1(CC2CC2)CCN(Cc2cnc(-c3ccccc3C)nc2)CC1,2.09
20,O=C(O)c1cc(Cl)c(Cl)cc1C(=O)Nc1cccc2ncccc12,-1.28
21,Cn1c(=O)oc2cc(S(=O)(=O)CCC(=O)NCCc3ccccc3)ccc21,16.6
22,CCOc1ccc(CCNc2nc3c(c(=O)n(C)c(=O)n3C)n2CC)cc1OCC,13.3
23,COc1ccc(/C=C2\SC(=S)N(CC(=O)Nc3nnc(C)s3)C2=O)cc1,13

row,SMILES,"hERG current change (%, negative = inhibition) at 1uM [%]"
1,Cc1cc(C)n2nc(CCCO)nc2n1,21.8
2,COc1ccc(/C=C(\NC(=O)c2ccc(C)cc2)C(=O)NCCCn2ccnc2)cc1,-91.7
3,CCOc1cccc2sc(N(CCCN(C)C)C(=O)c3ccc(C(=O)c4ccccc4)cc3)nc12.Cl,-29.5
4,C(=N\N(c1ccccc1)c1ccccc1)/c1ccc(N2CCOCC2)s1,5.76
5,Cn1ccc(C(=O)N2CCCc3ccccc32)n1,13.1
6,COc1ccc(/C=N/Nc2nc(-c3ccc(C)cc3)c(NC(C)=O)s2)cc1,11.2
7,C/C(=N\NC(=O)CC#N)c1cc2ccccc2oc1=O,12.7
8,CCN(CC)S(=O)(=O)c1cccc(-c2nnc(SCC(=O)N3CCC(C(=O)O)CC3)n2N)c1,-4.8
9,O=C(NCC1CCN(Cc2ccccc2Cl)CC1)Nc1cccc(Cl)c1,-62.3
10,Cc1ccccc1NS(=O)(=O)c1ccc(C(=O)OCC(=O)NCC(C)C)cc1,13.6
11,CCOc1cc(C(=O)NC(=S)Nc2ccc(Cl)c(C(=O)O)c2)cc(OCC)c1OCC,9.91
12,O=C(NCc1cnc2ccccn12)C1CCC(=O)N(Cc2ccccc2F)C1 (centres unmarked),12.5
13,Cc1ccc(OCCCN(C)C)c(Br)c1,-3.3
14,Cc1ccc(C(C)C)cc1S(=O)(=O)Nc1ccncc1,12.8
15,CCN(C(=O)CSc1nc2ccc(OC)cc2[nH]1)C1CCS(=O)(=O)C1 (centres unmarked),9.11
16,Cc1ccc(-n2c(C)c([N+](=O)[O-])c3ccc(O)cc32)cc1,8.05
17,COC(CNC(=O)CCc1c(C)nc2c(c(C)nn2-c2ccc(C)cc2)c1C)OC,12.1
18,O=C(Nc1c(Cl)cc(Cl)cc1C(=O)NCC1CCCO1)c1ccco1 (centres unmarked),5.39
19,CC1CCCN(C(=O)CSc2nnc(-c3ccc(S(=O)(=O)N4CCOCC4)cc3)n2C)C1 (centres unmarked),10.4
20,CCN1CCN(C(c2cccs2)C(C)NC(=S)Nc2cccc(C)c2C)CC1 (centres unmarked),-31.8
